This is one part of the list.

The assay deals with PfHDP1 homeodomain (GST-tagged). As to the kind of experiment: gcPBM binding intensity (ln(normalized median fluorescence intensity)); higher = stronger DNA binding. In a few lines:
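Alexa488 anti-GST antibody, scanned at 488 nm, detected GST-tagged P. falciparum DNA-binding domains that had been expressed in E. coli and incubated for 1 h on an Agilent 4 × 180k array. The array carried primer-extended double-stranded 36-bp intergenic genomic probes and negative controls. Binding intensity is the highest Masliner-normalised natural-log median intensity across replicate spots of either orientation of each probe.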
With “AACATAACAAAAAAAAAAAAAAATATATATATATAT [TGCATGCA_negctrl_site370]”, the “gcPBM binding intensity (ln)” value stood at 9.27.

In the case of “TTTTTTACATTCTGCACACAATTTATTTTTTTTTTT [CACACA_site4188]”, the “gcPBM binding intensity (ln)” value was found to be 9.35.

As for “TACACAAAAATAAACACACACACATATAAATAAATA [CACACA_site6599]”, the “gcPBM binding intensity (ln)” value worked out at 6.79.

For “CCACTAAAGGCATATACACACATTTTTTAAATTGCC [CACACA_site2839]”, the “gcPBM binding intensity (ln)” value is 6.73.

In the case of “TGTAATACATGTTGTTGTACAATATCTTTAACTTTT [XGTACX_site1219]”, the “gcPBM binding intensity (ln)” value is 6.51.

In the case of “TATAACTATGGGTGTACACATTAATCGTTTTTCTTT [CACACA_site5196]”, the “gcPBM binding intensity (ln)” value was found to be 6.38.

Take “TATTGTAAAAAAGCAAAATTTATCACCTCCTTATTT [CACACA_negctrl_site172]”: the “gcPBM binding intensity (ln)” value worked out at 6.18.

Regarding “TTTTCGCTTTTATAAAATTATATGAAAAAACTAAAA [XGTACX_negctrl_site139]”, the “gcPBM binding intensity (ln)” value was found to be 6.16.

“TTATGGAAAAATATAACACACAATGATTTTTTATAA [CACACA_site1831]”: the “gcPBM binding intensity (ln)” value was 6.33.

Take “GAAAAAATAAAATAAAGTACATAACTATAATAAAAA [XGTACX_site4807]”: the “gcPBM binding intensity (ln)” value came out at 6.34.

Regarding “ATATATAAACACTCTTGTACATAATAATGTATATAT [XGTACX_site2451]”, the “gcPBM binding intensity (ln)” value turned out to be 6.45.

For the sequence “TACTCCTCAATATTATGTACATATAATAGTTATAAA [XGTACX_site8551]”, the “gcPBM binding intensity (ln)” value was found to be 6.73.

In the case of “CTTACACCCATATATACACACATGTATATTTTATAT [CACACA_site4462]”, the “gcPBM binding intensity (ln)” value worked out at 7.24.

With “AACCTAAGCATTCTTCAAATTATATATGTAAAATGA [CACACA_negctrl_site261]”, the “gcPBM binding intensity (ln)” value worked out at 6.18.

With “TCGTATCTATTGAGGGTGCCTCTATAATTGATACAA [GTGCAC_site9636]”, the “gcPBM binding intensity (ln)” value was determined as 5.83.

On to “TAATATAATATATGCACACAAATATGTATTTATGTG [CACACA_site5210]”, for which the “gcPBM binding intensity (ln)” value was found to be 10.1.

Turning to “ACATTTTTTTTTTTTTTTCTTTTTCTTTTTCTTTTT [CACACA_negctrl_site1295]”, the “gcPBM binding intensity (ln)” value came to 6.07.

Regarding “AACTTTGAGACATAGTGTACTTACACAATCTTAATA [XGTACX_site3712]”, the “gcPBM binding intensity (ln)” value is 6.1.

As for “CATATTTGATACAAGTGTACTTTATTTAAAAATTCT [XGTACX_site8408]”, the “gcPBM binding intensity (ln)” value amounted to 6.09.

On to “TATATAACTGTCTTCAGTACACAATAAATAAAAATA [XGTACX_site8856]”, for which the “gcPBM binding intensity (ln)” value is 6.72.

Take “TAATAAAAATAAAATTGTACTAATAACATTTCATTA [XGTACX_site3703]”: the “gcPBM binding intensity (ln)” value came to 5.85.

Consider “TTTCAAAAAAATAGCTATATTTATATTAATGCACGA [TGCATGCA_negctrl_site63]”, for which the “gcPBM binding intensity (ln)” value turned out to be 9.84.

“AAAGGTGTATATAATACACACGTGTGATTAAAATTG [CACACA_site8104]”: the “gcPBM binding intensity (ln)” value turned out to be 6.8.

As for “TGTATTAAATTTTGAACACACAAAATAAAACATATA [CACACA_site1672]”, the “gcPBM binding intensity (ln)” value was determined as 6.54.

Consider “TGTACATTCGGAGTAAAAAAAAATTTATACAATTAC [CACACA_negctrl_site1451]”, for which the “gcPBM binding intensity (ln)” value is 6.24.

As to “AACAGATAAAAGGGTACACACATATATACCTGTACA [CACACA_site4285]”, the “gcPBM binding intensity (ln)” value worked out at 6.68.

Take “AGTAAATAATAGATCGCATGTAATAACTAGTAGGAA [TGCATGCA_site948]”: the “gcPBM binding intensity (ln)” value stood at 7.

Take “ATTATAAAGACATATACACACATACGTACATACATA [CACACA_site5893]”: the “gcPBM binding intensity (ln)” value came to 7.02.

For “ACAATTGAAGAAATACGTACATAAAGAAAAACTAGT [XGTACX_site820]”, the “gcPBM binding intensity (ln)” value came to 6.78.

Turning to “AGTATAAAATAAATGTGTACACAAGAAAATATGTTA [XGTACX_site8381]”, the “gcPBM binding intensity (ln)” value came to 8.33.

“AAAATCACAAGACACACACACACAAAAAAAAAAAAA [CACACA_site6791]”: the “gcPBM binding intensity (ln)” value amounted to 6.29.

With “AAAATATTTTAATGTTGTACATTAATATATTATATA [XGTACX_site2513]”, the “gcPBM binding intensity (ln)” value is 6.03.

For “ATATATATATGTATGTGTCCACAAGGAGATATATAT [XGTACX_site783]”, the “gcPBM binding intensity (ln)” value came to 8.61.

Turning to “GTAAATATGTTTATTAGTACACATATGAAAATAAAT [XGTACX_site5820]”, the “gcPBM binding intensity (ln)” value turned out to be 6.42.

Turning to “GTTGTTTCTATAAATTGTACTTAAATATAATTATAT [XGTACX_site585]”, the “gcPBM binding intensity (ln)” value was determined as 7.

For the sequence “ATATATTGTATGTGCTCACACATGTTTCGATATTAT [CACACA_site4336]”, the “gcPBM binding intensity (ln)” value came to 7.39.

Turning to “TTTTTTTTTTTTTGGGGTACATTTTAATTAATATTA [XGTACX_site4866]”, the “gcPBM binding intensity (ln)” value was 6.51.

Take “TAAAATATAATTAGCACACATATATAAAATATATAT [CACACA_site4093]”: the “gcPBM binding intensity (ln)” value stood at 7.35.

With “GTTCAAAATATGAACACACACATATATATATATATA [CACACA_site2057]”, the “gcPBM binding intensity (ln)” value amounted to 9.26.

Take “ATCTACATATATTATTGTACATTGTTAAAAATTTAT [XGTACX_site7769]”: the “gcPBM binding intensity (ln)” value stood at 6.49.

In the case of TTTCGTAATATGCGTGTGCACAATGAGTCCATATCT, the “gcPBM binding intensity (ln)” value stood at 10.9.

As for “TTTTTTCATAAATAATGTACATATATATATATATAT [XGTACX_site3620]”, the “gcPBM binding intensity (ln)” value worked out at 9.21.

With “TCTTGTAGATATATTTGTACATATATTTATGGGTAT [XGTACX_site1139]”, the “gcPBM binding intensity (ln)” value was determined as 6.82.

For “CTAGACTTTTTACAATGTACATATTTATGTATTATT [XGTACX_site1833]”, the “gcPBM binding intensity (ln)” value was found to be 6.4.

Values taken from the supplement of paper PMC11417369.
